Test results as given in PubChem BioAssay AID686978 (National Center for Advancing Translational Sciences (NCATS), 2013).
Where “and” joins values, the source holds several entries; their conditions need not be identical. Equal entries are not always repeated. About 64,000 (15%) of roughly 420,000 compounds were called active. This list was built around the results that the source calls inconclusive (neither active nor inactive); the mix of calls is not that of the screen. Calls come from the whole dose curve; as a rule, active = well fitted inhibition curve with a large enough effect; inconclusive = small, poorly fitted or top-dose-only effect; inactive = flat fitted curve, though single readings scatter. Potencies of inconclusive entries are left out as doubtful fits. A structure can be active in one record and inactive in another.

Assay: qHTS for Inhibitors of human tyrosyl-DNA phosphodiesterase 1 (TDP1): qHTS in cells in absence of CPT; note: nearly all actives have a fitted effect of over 55% in size
Conditions: DT40 Tdp1-/- hTDP1 cells, no CPT, ATP luminescence, 48 h; activity change, negative = growth inhibition: at 46.2 µM (top of the series) unless noted
Method in brief: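 Growth of hTDP1-complemented DT40 Tdp1-knockout cells is measured by ATP luminescence after at least 48 hr compound exposure at 37 °C, with DMSO substituting for the 20 nM CPT used in the parallel screen.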
% is set by controls: 0 for no effect and ±100 for the full control effect; potency is the fitted concentration of half-maximal effect; tags give direction and shape of the fitted curve.

SMILES	activity change, negative = growth inhibition	Potency
N#CC1CC(c2ccccc2)=NN1c1ccccc1[N+](=O)[O-] (centres undefined)	inactive: -15.2%	
CC(OC(=O)C1CCN(c2ccc(C(F)(F)F)cn2)CC1)C(=O)NC1CCCCC1C (centres undefined)		inconclusive [inhibitor, single point]
CC1CCCC(NC(=O)c2ccc3c(c2)N(Cc2ccccc2)C(=O)CS3=O)C1C (centres undefined)		inconclusive [inhibitor, single point]
Cc1onc(-c2ccccc2)c1C(=O)N1CCC(C)(C(=O)NS(=O)(=O)C2CC2)C1 (centres undefined)	inactive: 16.9%	
O=C(Nc1cccc(C(=O)O)c1)Nc1ccccc1Cl	inactive: 1.56%	
Cc1cccc(-n2nnc3c(=O)n(CC(=O)Nc4cc(C)on4)cnc32)c1	inactive: 5.5%	
O=C(Nc1nccs1)c1ccc2ccccc2c1	inactive: -16.6%	
CCOc1ccc(NC(=O)CC(Cc2cc(C)cc(C)c2)C(=O)O)cc1 (centres undefined)	inactive: 2.42%	
Cc1cc(C(=O)NCC2CCC3(CCN(Cc4ccc5ccccc5c4)CC3)O2)n(C)n1 (centres undefined)		active: 16.4 µM
CCC(CO)[n+]1c(C)cc(/C=C2\Sc3ccccc3N2Cc2ccccc2)cc1C (centres undefined)		active: 2.31 µM
CC(=O)C1=C(O)C(=O)N(c2ccccn2)C1c1cccc(F)c1 (centres undefined)	inactive: -5.68%	
CN(c1ccccc1)S(=O)(=O)c1ccc(NC(=S)NC(=O)c2ccccc2)cc1		active: 25.9 µM
Cn1cc(CCC(=O)NCc2cccc(Cl)c2)c2ccccc21	inactive: -20.7%	
COc1ccc([C@H]2CC(=O)C=C(c3ccc4cc[nH]c4c3)C2)cc1		active: 23.1 µM
COCOCCn1cc(CN2CCS(=O)(=O)N(Cc3ccc(-c4cccc(N(C)C)c4)cc3)C(CC(C)C)C2=O)nn1 (centres undefined)		inconclusive [inhibitor, partial curve, poor fit]
Cc1ccc(OCC(=O)NCCS(=O)(=O)N2CCN(c3ccccc3)CC2)cc1		inconclusive [inhibitor, partial curve]
COc1ccc(-c2nn3c(-c4ccc(OC)cc4)nnc3c3ccccc23)cc1	inactive: 1.41%	
CCc1nn2c(=O)cc(COC(=O)c3ccccc3NC(=O)COc3ccccc3C)nc2s1		active: 5.17 µM
CCOC(=O)c1cc(-c2ccc(F)cc2)n(CC(=O)N2CCCC2)c1C		inconclusive [inhibitor, single point]
C[C@]12CCC(=O)C=C1CC[C@@H]1[C@@H]2[C@@H](O)C[C@@]2(C)[C@H]1CC[C@]2(O)C(=O)COC(=O)CCC(=O)O		inactive and active: 8.41 µM
Cc1ccc(S(=O)(=O)N2CCOCC2)cc1NC(=O)COc1ccc2c(C)cc(=O)oc2c1		inconclusive [inhibitor, single point]
Cc1cccc2c(=O)n(C(=O)c3ccccc3)c(N)nc12		inconclusive [inhibitor, single point]
COc1ccc(Br)cc1/C=N/NC(=O)CN1CCN(Cc2ccccc2)CC1	inactive: -13.7%	
O=C(Cn1[nH]c(=O)c2ccccc2c1=O)N1CCN(S(=O)(=O)c2ccc(Cl)cc2)CC1	inactive: -0.422%	
COc1ccccc1N1CCN(C(=O)Cn2ncc3c(=O)oc4ccccc4c32)CC1		inconclusive [inhibitor, single point]

SMILES	activity change, negative = growth inhibition	Potency
O=P(Cc1cccc2ccccc12)(c1ccccc1)c1ccccc1		active: 20.6 µM
CCOC(=O)c1cnc2sc3c(n2c1=O)CCCC3		active: 14.6 µM
Cc1ccc(S(=O)(=O)C2C(=O)N(C)C3(C)CC2c2ccccc2O3)cc1 (centres undefined)		active: 16.4 µM
O=C(COC(=O)c1cc(Br)ccc1O)Nc1ccc2c(c1)OCO2		inconclusive [inhibitor, single point]
Cc1ccc(Cl)cc1N1CCN(C(=O)CSc2nnc3n2C(C)(C)Cc2ccccc2-3)CC1		active: 7.31 µM
CCOc1ccccc1/C=C/c1onc(C)c1S(=O)(=O)N1CCC(C(=O)NC(C)(C)C)CC1		inconclusive [inhibitor, single point]
Cc1cc(Cl)c(S(=O)(=O)NC(C(=O)O)C(C)C)cc1OCC(=O)NC1CCCCC1 (centres undefined)	inactive: -4.92%	
CC1=Nc2ccccc2N=C(NC(=O)c2ccccc2)C1c1ccccc1 (centres undefined)		inconclusive [inhibitor, single point]
CSc1nsc(NC(=O)Cc2ccccc2)n1		inconclusive [inhibitor, single point]
CCN(CC)c1ccc(NC(=O)C(Cc2ccccc2)NS(=O)(=O)c2ccc(Br)s2)c(C)c1 (centres undefined)		inconclusive [inhibitor, single point]
CN(C)c1ccc(/C=C/c2ccnc3ccccc23)cc1O		active: 10 µM
COc1ccc2[nH]cc(C(O)CN3CCN(c4ccccc4F)CC3)c2c1 (centres undefined)		inconclusive [inhibitor, single point]
CCNc1nc(SCCOc2ccccc2)nc(N(C)C)n1		inconclusive [inhibitor, single point]
CC(C)N1C/C(=C/c2ccsc2)C(=O)/C(=C/c2ccsc2)C1		active: 5.8 µM
Cc1onc(-c2ccccc2)c1C(=O)N/N=C/c1cc2c(cc1Br)OCO2		active: 25.9 µM
O=C(Nc1cccc(Cl)c1)c1c(NC(=O)C(F)(F)F)sc2c1CCCC2		active: 3.26 µM
CC(=O)Nc1cccc(NC(=O)Cn2cnc3c2c(=O)n(C)c(=O)n3C)c1	inactive: -2.55%	
Cc1nc(NC(=O)c2ccc(Br)o2)sc1C		inconclusive [inhibitor, single point]
O=C(c1ccc(Cl)c(S(=O)(=O)N2CCOCC2)c1)N(Cc1ccco1)Cc1cccs1		inconclusive [inhibitor, single point]
CC1=C(C(=O)Nc2ccc(CC(=O)NCc3ccc(OC(C)C)cc3)cc2)SCCO1		active: 0.184 µM
COc1ccc2cc3c(N)nn(C(=O)Cc4c[nH]c5ccccc45)c3nc2c1		active: 4.11 µM
Cc1ccc2c(c1)N(CC(=O)N1CCN(c3ccccc3)CC1)C(=O)C(C)O2 (centres undefined)	inactive: -23%	
COc1ccccc1CC(=O)NC12CC3CC(CC(C3)C1)C2		inconclusive [inhibitor, single point]
O=C(Nc1ccccc1C(F)(F)F)c1ccc2nccnc2c1	inactive: -11.9%	
COC(=O)c1cc(S(=O)(=O)N2CCN(c3ccc(C(C)=O)cc3)CC2)cn1C		inconclusive [inhibitor, single point]

SMILES	activity change, negative = growth inhibition	Potency
COC(=O)Cc1ccc(N(Cc2ccccc2F)S(=O)(=O)c2ccc(Br)cc2)cc1		active: 20.6 µM
CC(=O)Nc1ccc(C(=O)CSc2nc3ccc(C)cc3[nH]2)cc1		inconclusive [inhibitor, partial curve, poor fit]
O=C(Nc1cccc(F)c1)C1CCCN(C(=O)c2ccc(Cl)cc2)C1 (centres undefined)		active: 18.4 µM
Cc1[nH]c2ccc(-c3n[nH]c(=S)n3C)cc2c1C	inactive: -16.1%	
COc1ccc(CCNCc2c(C(=O)O)c(C)n(Cc3ccccc3C)c2C)c(OC)c1		active: 18.4 µM
O=C(CSC1=Nc2ccccc2C2=NC(CC(=O)NCc3ccco3)C(=O)N12)NCc1ccco1 (centres undefined)	inactive: 1.91%	
CS(=O)(=O)c1ccc(Nc2nc(C(N)c3ccccc3)cs2)cc1 (centres undefined)		inconclusive [inhibitor, single point]
O=C(c1ccco1)N1CCN(Cc2cccc(C(F)(F)F)c2)CC1		inconclusive [inhibitor, single point]
CC(=O)c1c(C)[nH]c(C(=O)OCc2cccc(C)c2)c1C		active: 13 µM
Cc1ccc(Cn2nnc3c(=O)[nH]c(C4CCN(S(=O)(=O)/C=C/c5ccccc5)CC4)nc32)cc1	inconclusive: -30.4% [inhibitor]	
COc1cc(OC)c(NC(=O)COCc2cc(-c3cccs3)on2)cc1Cl	inconclusive: -32.3% [inhibitor]	
COc1ccc(-c2cc(-c3ccccc3)nc(SCC(=O)Nc3ncc(C)s3)c2C#N)cc1		inconclusive [inhibitor, partial curve]
CC(=O)NCCc1nc2cc(NC(=O)c3ccccc3C)ccc2n1C	inactive: 11.2%	
CC(C)(C)NC[C@H](O)COc1nsnc1N1CCOCC1		inconclusive [inhibitor, single point]
NS(=O)(=O)c1ccc(S(=O)(=O)N2CCCC(c3ccccc3)C2)cc1 (centres undefined)		active: 23.1 µM
Cn1c(=O)n(CC(=O)O)c(=O)c2c1nc1n2CCS1		inconclusive [inhibitor, partial curve]
COCCCNc1nc2ccccc2nc1NS(=O)(=O)c1cccc(Cl)c1		inconclusive [inhibitor, partial curve]
CCOc1ccccc1N(C)C(=O)Cn1cnc2sc(C)c(S(=O)(=O)N3CCC(C)CC3)c2c1=O		inconclusive [inhibitor, single point]
CC(=O)N(Cc1nc2sc(C)c(C)c2c(=O)[nH]1)C1CCCC1		inconclusive [inhibitor, single point]
Cc1ccc(CN2CCN(Cc3cccc(OCCO)c3)CC2CCO)o1 (centres undefined)	inactive: -6.73%	
CCCCn1c(C23CC4CC(CC(C4)C2)C3)n[nH]c1=S		inconclusive [inhibitor, partial curve, poor fit]
CCOc1ccc(S(=O)(=O)N2CCN(S(=O)(=O)c3ccc(C)c(C)c3)CC2)cc1		inconclusive [inhibitor, full curve, poor fit]
Cc1ccccc1NC(=O)Cc1nc(COC(=O)c2cccc(O)c2)cs1		inconclusive [inhibitor, single point]
CCC(=O)N(C)C[C@@H]1Oc2cc(Br)ccc2S(=O)(=O)N([C@@H](C)CO)C[C@@H]1C	inactive: -3.88%	
